From PubChem BioAssay AID624417 (National Center for Advancing Translational Sciences (NCATS), 2012)
Where “and” joins values, the source holds several entries; their conditions need not be identical. Equal entries are not always repeated. Screen size: about 410,000 compounds; about 6,400 (1.6%) were called active. The shares of active, inactive and inconclusive entries below differ from those in the screen. Calls come from the whole dose curve; as a rule, active = well fitted inhibition curve with a large enough effect; inconclusive = small, poorly fitted or top-dose-only effect; inactive = no such curve, though single readings can be large or run the other way. Potencies of inconclusive entries are doubtful fits and often do not repeat.
% is set by controls: 0 for no effect and ±100 for the full control effect; potency is the fitted concentration of half-maximal effect; tags give direction and shape of the fitted curve.
Note: nearly all actives have a fitted effect of over 55% in size.

These compounds were tested against Glucagon-like peptide 1 receptor (Homo sapiens) (UniProt P43220) (assay: qHTS of GLP-1 Receptor Inverse Agonists (Inhibition Mode)). Conditions: HEK293 GLP-1R CRE-luciferase, luminescence, 24 h, GLP-1R form is constitutively active; activity change, negative = inhibition: at 38.3 µM (top of the series) unless noted.
UniProt P43220, sequence (P43220 whole entry, looked up): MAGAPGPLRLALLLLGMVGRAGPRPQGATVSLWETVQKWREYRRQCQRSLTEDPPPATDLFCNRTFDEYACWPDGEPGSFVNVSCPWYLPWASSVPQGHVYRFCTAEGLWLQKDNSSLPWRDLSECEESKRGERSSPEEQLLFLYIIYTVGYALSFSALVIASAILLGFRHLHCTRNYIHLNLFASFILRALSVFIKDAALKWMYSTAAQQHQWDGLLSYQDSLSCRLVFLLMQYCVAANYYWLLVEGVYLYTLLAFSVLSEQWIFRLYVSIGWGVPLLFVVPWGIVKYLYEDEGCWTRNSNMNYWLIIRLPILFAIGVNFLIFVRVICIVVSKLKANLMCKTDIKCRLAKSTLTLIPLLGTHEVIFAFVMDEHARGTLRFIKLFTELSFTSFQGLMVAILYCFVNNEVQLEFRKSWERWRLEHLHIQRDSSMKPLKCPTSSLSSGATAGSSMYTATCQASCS
Method in brief: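 Assay principle: reduced luminescence from a cAMP-responsive reporter in HEK293 cells co-expressing a constitutively active GLP-1R. Conditions: 24 hr compound incubation, 37 deg C, 5% CO2.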
With `CCOC(=O)[C@]12CCCC=C1N(CCc1ccc(OC)c(OC)c1)C(=O)[C@H](CC(=O)NCc1ccc(C)o1)C2` the “activity change, negative = inhibition” value was inactive: -3.74%.
`O=C(Nc1ccc(N2CCCC2)cc1)c1cccc(Cl)c1` was tested, and the Potency was inconclusive: 6.31 µM [inhibitor, partial curve].
In the case of `Cc1ccc(C(=O)Nc2ccc(N3CCN(C)CC3)cc2)cc1`, the Potency is reported as inconclusive: 11.2 µM [inhibitor, single point].
With `Cc1cccc(C(=O)NCC(=O)N2CC=C(c3ccccc3)CC2)c1` the Potency was inconclusive: 3.55 µM [inhibitor, partial curve, poor fit].
`Cc1ccc(S(=O)(=O)N2CCC(=O)N([C@H](COCc3ccc(Cl)cc3Cl)Cc3ccccc3)CC2)cc1` was tested, and the Potency was inconclusive: 20 µM [inhibitor, single point].
In the case of `CC(NC(=O)C12CC3CC(CC(C3)C1)C2)C(=O)N/N=C/C1=C(N2CCOCC2)C(=C\c2cccc([N+](=O)[O-])c2)/CC1` (centres undefined), the Potency is reported as inconclusive: 0.501 µM [inhibitor, full curve, poor fit].
For `CC(C)C[C@@H](C(=O)NC1CCN(Cc2ccccc2)CC1)N1C(=O)N2CCc3c([nH]c4ccccc34)[C@@]2(C)C1=O`, the Potency was inconclusive: 11.2 µM [inhibitor, partial curve, poor fit].
`COc1ccc(NC(=O)c2ccco2)cc1NC(=O)c1ccc(C)cc1` was tested, and the Potency was inconclusive: 0.501 µM [inhibitor, full curve, poor fit].
`CCN(CC)CCN(Cc1cc2cc3c(cc2[nH]c1=O)OCCO3)C(=S)NCC(C)C` was tested, and the Potency was inconclusive: 2.51 µM [inhibitor, partial curve, poor fit].
With `COCCn1c(SCC(=O)c2ccc3c(c2)OCCO3)nnc1-c1ccco1` the “activity change, negative = inhibition” value was inactive: 15.6%.
For `CCn1c(NCc2ccccc2Cl)nc2ccccc21`, the Potency was inconclusive: 28.2 µM [inhibitor, single point].
`O=C(CC(=O)c1ccccc1)Nc1cccc([N+](=O)[O-])c1` was tested, and the “activity change, negative = inhibition” value was inactive: -17.2%.
In the case of `Cc1nc(NC(=O)CCl)sc1C(=O)N(C)C`, the “activity change, negative = inhibition” value is reported as inactive: -19%.
With `COc1cccc(C(=O)Nc2nnc(-c3ccc(F)cc3)o2)c1` the Potency was inconclusive: 31.6 µM [inhibitor, single point].
`COc1ccc(CCNC(=O)c2cc(-c3cc(C)cc(C)c3O)n[nH]2)cc1OC` was tested, and the Potency was inconclusive: 20 µM [inhibitor, single point].
In the case of `COc1ccc(Nc2nc3cc(-c4ccccc4C)sc3c(=O)n2C)cc1OC`, the “activity change, negative = inhibition” value is reported as inactive: 16.1%.
With `O=C(NCCc1ccc(Cl)cc1)c1cc2ccccn2n1` the Potency was inconclusive: 28.2 µM [inhibitor, single point].
For `CCOC(=O)C1(Cc2ccccc2)CCN(Cc2cccc(OC)c2O)CC1`, the Potency was inconclusive: 28.2 µM [inhibitor, single point].
In the case of `Cc1c(C)c2ccc(OCC(=O)N3CCC(C(=O)O)CC3)c(C)c2oc1=O`, the Potency is reported as inconclusive: 28.2 µM [inhibitor, single point].
In the case of `CCc1ccc(NC(=O)CSc2nc(C)c(C(=O)Nc3ccc(Cl)cc3)c(-c3ccc(OC)cc3)c2C#N)cc1`, the Potency is reported as inconclusive: 2.51 µM [inhibitor, full curve].
With `COc1ccccc1N1CCN(CCCNC(=O)Nc2ccccc2C)CC1` the “activity change, negative = inhibition” value was inactive: -28.1%.
With `CCOC(=O)c1cc(C#N)c(N2CCNCC2)nc1C(F)(F)F` the “activity change, negative = inhibition” value was inactive: 3.26%.
`CCOc1ccccc1CN1CCCC(C(=O)c2ccc(OC)c(OC)c2)C1` (centres undefined) was tested, and the “activity change, negative = inhibition” value was inactive: -28.1%.
For `CCN1C(=O)[C@H]2[C@@H](c3ccc(-c4ccc(Cl)c(Cl)c4)c(OC)c3)N3CCCC[C@@]3(C(=O)OC)[C@H]2C1=O`, the Potency was inconclusive: 4.47 µM [inhibitor, full curve, poor fit].
For `CC(=O)C[C@@H](O)CC(=O)[C@@H]1OC(=O)CCCCCCCCc2ccccc21`, the “activity change, negative = inhibition” value was inactive: -37.7%.
`O=C1C2CCCN2C(=O)N1CCN1CCN(c2cccc(C(F)(F)F)c2)CC1` (centres undefined) was tested, and the “activity change, negative = inhibition” value was inactive: -28%.
`COc1ccc(C)cc1NC(=O)C1COc2ccccc2O1` (centres undefined) was tested, and the Potency was inconclusive: 28.2 µM [inhibitor, single point].
In the case of `COc1ccccc1CNC(=O)c1ccc(-c2nc(CS(=O)c3ccc(C)cc3)c(C)o2)cc1` (centres undefined), the “activity change, negative = inhibition” value is reported as inactive: -0.344%.
In the case of `CCN1CCN(Cc2ccc(NC(=O)c3ccc(C)c(NC(=O)C(=O)c4c[nH]c5ccccc45)c3)cc2C(F)(F)F)CC1`, the Potency is reported as active: 11.2 µM and active: 10 µM and active: 5.62 µM.
With `Cc1cc(C)cc(NC(=O)COC(=O)c2cccc(S(=O)(=O)N3CCCCC3)c2)c1` the Potency was inconclusive: 22.4 µM [inhibitor, single point].
`OC(CNCc1ccccc1)c1ccccc1` (centres undefined) was tested, and the “activity change, negative = inhibition” value was inactive: -3.17%.
With `CCN1C/C(=C/c2ccc(OC)c(O)c2)C(=O)/C(=C/c2ccc(OC)c(O)c2)C1` the Potency was inconclusive: 22.4 µM [inhibitor, single point].
`CCN(c1ccccc1)S(=O)(=O)c1ccc(OC)c(NC(=O)CCc2nc3ccccc3c(=O)[nH]2)c1` was tested, and the Potency was inconclusive: 3.98 µM [inhibitor, single point].
For `Cn1c(C(=O)NCC2CCCO2)cc2oc3ccccc3c21` (centres undefined), the “activity change, negative = inhibition” value was inactive: 8.81%.
For `CC(=O)Nc1ccc(C(=O)Nc2ccc3c(c2)OCO3)cc1`, the “activity change, negative = inhibition” value was inactive: 3.95%.
For `COc1cc(/C=N/NC(=O)c2cccnc2)ccc1OS(=O)(=O)c1cc(C)ccc1C`, the Potency was inconclusive: 10 µM [inhibitor, partial curve, poor fit].
With `CCN1CCN(CCCNC(=O)c2cn(CCOC)c(=O)c3c2c2ccccc2n3C)CC1` the “activity change, negative = inhibition” value was inactive: 4.61%.
For `CCOC(=O)c1c(-c2ccccc2)oc2ccc(O)c(CN(C)C)c12`, the Potency was inconclusive: 11.2 µM [inhibitor, partial curve, poor fit].
With `CN1CCCCCC1=Nc1ccc([N+](=O)[O-])cc1` the Potency was inconclusive: 11.2 µM [inhibitor, partial curve, poor fit].
In the case of `CC(C)c1csc2nc3n(c(=O)c12)CCCCC3`, the Potency is reported as inconclusive: 28.2 µM [inhibitor, single point].
In the case of `OC(c1cc(Cl)cc(Cl)c1)c1ncc(-c2ccccc2F)[nH]1` (centres undefined), the Potency is reported as inconclusive: 28.2 µM [inhibitor, single point].
In the case of `CCc1ccc(CN(C)C(=O)CCc2nc3ccccc3n(-c3ccc(OC)cc3)c2=O)cc1`, the activity change, negative = inhibition is reported as inconclusive: -57.7% [inhibitor] [at 7.66 µM].
`Cc1cc(C)nc(N/N=C/C2=C(O)CC(c3ccc(F)cc3)CC2=O)n1` (centres undefined) was tested, and the Potency was inconclusive: 6.31 µM [inhibitor, partial curve, poor fit].
In the case of `Cc1cccc(NC(=O)CN(CCc2ccccc2)S(C)(=O)=O)c1`, the Potency is reported as inconclusive: 20 µM [inhibitor, single point].
In the case of `O=c1[nH]c(/C=C/c2ccccn2)nc2ccccc12`, the Potency is reported as inconclusive: 28.2 µM [inhibitor, single point].
In the case of `Cc1cc(C(=O)COc2ccc(Cl)cc2Br)c(C)n1C`, the Potency is reported as inconclusive: 28.2 µM [inhibitor, single point].
In the case of `O=C(CSCc1cnn(-c2ccccc2)c1-n1cccc1)NCc1ccc2c(c1)OCO2`, the Potency is reported as inconclusive: 10 µM [inhibitor, partial curve, poor fit].
With `O=C1c2cccc3c([N+](=O)[O-])ccc(c23)C(=O)N1c1ccccn1` the Potency was inconclusive: 28.2 µM [inhibitor, single point].
For `Cc1ccc2c(C)c(C(=O)N(Cc3ccccc3)C3CCS(=O)(=O)C3)oc2c1` (centres undefined), the Potency was inconclusive: 28.2 µM [inhibitor, single point].
With `COc1ccc(-c2ccc(C(=O)Nc3ccc(Cl)cc3)c3occc23)c(C)c1` the Potency was inconclusive: 12.6 µM [inhibitor, partial curve, poor fit].
In the case of `N#CC(=C1C=CC(=NO)C(Cl)=C1)c1ccccc1`, the “activity change, negative = inhibition” value is reported as inactive: -23.2%.
In the case of `CN(C)CCNC(=O)c1cccc(S(=O)(=O)Nc2ccc(F)cc2)c1`, the “activity change, negative = inhibition” value is reported as inactive: -31.6%.
In the case of `O=C(CSc1nc2ccccc2c(=O)n1-c1ccc(F)c(Cl)c1)Nc1cccc(S(=O)(=O)N2CCOCC2)c1`, the Potency is reported as inconclusive: 5.62 µM [inhibitor, full curve].
In the case of `COc1cc(/C=N/NC(=O)NC23CC4CC(CC(C4)C2)C3)ccc1O`, the activity change, negative = inhibition is reported as inconclusive: -32.8% [inhibitor].
`COc1ccc(CCN2CN(S(=O)(=O)c3ccc(OC)cc3)c3nc4ccccc4nc32)cc1` was tested, and the Potency was inconclusive: 28.2 µM [inhibitor, single point].
`COc1ccc(C2=Nn3c(nnc3C(F)(F)F)SC2)cc1` was tested, and the Potency was inconclusive: 7.08 µM [inhibitor, partial curve, poor fit].
For `O=C(NCC[C@@H]1CC[C@@H](NS(=O)(=O)c2ccccc2)[C@@H](CO)O1)c1cc(Cl)cc(Cl)c1`, the “activity change, negative = inhibition” value was inactive: -19.7%.
In the case of `Cc1cc(C(=O)Nc2ccc3c(c2)OCCO3)c(C)o1`, the Potency is reported as inconclusive: 28.2 µM [inhibitor, single point].
In the case of `COc1ccc(NC(=O)CSCC(=O)N(C)CC(=O)Nc2ccc(Cl)c(C(F)(F)F)c2)cc1`, the Potency is reported as inconclusive: 11.2 µM [inhibitor, single point].
`CCc1ccc(CN(Cc2ccco2)C(=O)COc2ccccc2Cl)cc1` was tested, and the Potency was inconclusive: 22.4 µM [inhibitor, single point].
With `Cc1ccc2sc(N(CCCN(C)C)C(=O)c3ccc(S(=O)(=O)N(C)C)cc3)nc2c1C` the Potency was inconclusive: 10 µM [inhibitor, partial curve, poor fit].
With `O=C(CCS(=O)(=O)Cc1ccc(Cl)cc1)NCCCN1CCN(c2ccccc2F)CC1` the Potency was inconclusive: 10 µM [inhibitor, single point].
For `COc1cccc(Nc2nc3ccc(OC)cc3s2)c1`, the Potency was inconclusive: 28.2 µM [inhibitor, single point].
With `Cc1ccc(CSC(Nc2ccc(F)cc2)=C(C#N)C#N)cc1` the Potency was inconclusive: 6.31 µM [inhibitor, partial curve, poor fit].
